For one assay, the target named is Flag-MRGPRF (UniProt Q96AM1). The assay can be described thus: co-IP; lysates of A375 and SK-MEL-2 cells; Dynabeads with anti-Flag-tag or anti-HA-tag antibody, overnight at 4 °C; Western blot. (In general: In western blotting, separated proteins are transferred to a membrane and probed.)
A further assay concerns the target FLAG-MRGPRF (1-181aa) (UniProt Q96AM1). Described as above.
For the next assay, the target named is FLAG-MRGPRF (182-343aa) (UniProt Q96AM1). Described as above.
The next assay concerns the target MRGPRF-LgBiT (UniProt Q96AM1). The assay can be described thus: split reporter; SmBiT-LgBiT PPI luciferase assay; melanoma cells transfected with USP45-SmBiT and/or MRGPRF-LgBiT, luciferase activity measured after lysis.

Protein sequences, listed by entry. Tags and fused reporters are not part of them. Lines headed by an entry give the natural chain unless they say otherwise; changes in a name come on top. Residues count along the entry.
UniProt Q96AM1: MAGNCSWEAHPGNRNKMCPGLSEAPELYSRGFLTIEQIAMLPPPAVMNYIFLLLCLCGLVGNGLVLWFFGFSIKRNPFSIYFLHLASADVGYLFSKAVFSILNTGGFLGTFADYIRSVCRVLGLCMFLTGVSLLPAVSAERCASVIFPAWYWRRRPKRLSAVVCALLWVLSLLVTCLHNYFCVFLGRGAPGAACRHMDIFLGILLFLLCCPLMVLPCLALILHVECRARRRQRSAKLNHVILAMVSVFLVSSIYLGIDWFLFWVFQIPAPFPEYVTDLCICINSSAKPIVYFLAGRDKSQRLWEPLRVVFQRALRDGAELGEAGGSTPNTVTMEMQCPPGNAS
FLAG-MRGPRF (1-181aa): residues 1-181 of Q96AM1
FLAG-MRGPRF (182-343aa): residues 182-343 of Q96AM1

Results are given in words; binding and its absence hold for the method and conditions named. Binding seen in cells or lysates may run through a third protein. Some results given as binding are weak or reduced against the parent protein; the word gives no strength. For some of these results: Where a sequence is shown, tags or fusion partners need not be part of it.

B1: HA-USP45 (1-170 aa) (domain or fragment, UniProt Q70EL2 1-170)
chain: MRVKDPTKALPEKAKRSKRPTVPHDEDSSDDIAVGLTCQHVSHAISVNHVKRAIAENLWSVCSECLKERRFYDGQLVLTSDIWLCLKCGFQGCGKNSESQHSLKHFKSSRTEPHCIIINLSTWIIWCYECDEKLSTHCNKKVLAQIVDFLQKHASKTQTSAFSRIMKLCE
Regarding B1, the binding result with Flag-MRGPRF was “no binding”.

B2: HA-USP45 (61-814aa) (domain or fragment, UniProt Q70EL2 61-814)
chain: VCSECLKERRFYDGQLVLTSDIWLCLKCGFQGCGKNSESQHSLKHFKSSRTEPHCIIINLSTWIIWCYECDEKLSTHCNKKVLAQIVDFLQKHASKTQTSAFSRIMKLCEEKCETDEIQKGGKCRNLSVRGITNLGNTCFFNAVMQNLAQTYTLTDLMNEIKESSTKLKIFPSSDSQLDPLVVELSRPGPLTSALFLFLHSMKETEKGPLSPKVLFNQLCQKAPRFKDFQQQDSQELLHYLLDAVRTEETKRIQASILKAFNNPTTKTADDETRKKVKAYGKEGVKMNFIDRIFIGELTSTVMCEECANISTVKDPFIDISLPIIEERVSKPLLWGRMNKYRSLRETDHDRYSGNVTIENIHQPRAAKKHSSSKDKSQLIHDRKCIRKLSSGETVTYQKNENLEMNGDSLMFASLMNSESRLNESPTDDSEKEASHSESNVDADSEPSESESASKQTGLFRSSSGSGVQPDGPLYPLSAGKLLYTKETDSGDKEMAEAISELRLSSTVTGDQDFDRENQPLNISNNLCFLEGKHLRSYSPQNAFQTLSQSYITTSKECSIQSCLYQFTSMELLMGNNKLLCENCTKNKQKYQEETSFAEKKVEGVYTNARKQLLISAVPAVLILHLKRFHQAGLSLRKVNRHVDFPLMLDLAPFCSATCKNASVGDKVLYGLYGIVEHSGSMREGHYTAYVKVRTPSRKLSEHNTKKKNVPGLKAADNESAGQWVHVSDTYLQVVPESRALSAQAYLLFYERVL
As to B2, in the assay with Flag-MRGPRF, the binding entry was “binds”.

B3: HA-USP45 (190-814aa) (domain or fragment, UniProt Q70EL2 190-814)
chain: RGITNLGNTCFFNAVMQNLAQTYTLTDLMNEIKESSTKLKIFPSSDSQLDPLVVELSRPGPLTSALFLFLHSMKETEKGPLSPKVLFNQLCQKAPRFKDFQQQDSQELLHYLLDAVRTEETKRIQASILKAFNNPTTKTADDETRKKVKAYGKEGVKMNFIDRIFIGELTSTVMCEECANISTVKDPFIDISLPIIEERVSKPLLWGRMNKYRSLRETDHDRYSGNVTIENIHQPRAAKKHSSSKDKSQLIHDRKCIRKLSSGETVTYQKNENLEMNGDSLMFASLMNSESRLNESPTDDSEKEASHSESNVDADSEPSESESASKQTGLFRSSSGSGVQPDGPLYPLSAGKLLYTKETDSGDKEMAEAISELRLSSTVTGDQDFDRENQPLNISNNLCFLEGKHLRSYSPQNAFQTLSQSYITTSKECSIQSCLYQFTSMELLMGNNKLLCENCTKNKQKYQEETSFAEKKVEGVYTNARKQLLISAVPAVLILHLKRFHQAGLSLRKVNRHVDFPLMLDLAPFCSATCKNASVGDKVLYGLYGIVEHSGSMREGHYTAYVKVRTPSRKLSEHNTKKKNVPGLKAADNESAGQWVHVSDTYLQVVPESRALSAQAYLLFYERVL
Turning to B3, in the assay with Flag-MRGPRF, the binding result was “binds”.

B4: HA-USP45 (wildtype USP45) (enzyme, UniProt Q70EL2 1-814)
chain: MRVKDPTKALPEKAKRSKRPTVPHDEDSSDDIAVGLTCQHVSHAISVNHVKRAIAENLWSVCSECLKERRFYDGQLVLTSDIWLCLKCGFQGCGKNSESQHSLKHFKSSRTEPHCIIINLSTWIIWCYECDEKLSTHCNKKVLAQIVDFLQKHASKTQTSAFSRIMKLCEEKCETDEIQKGGKCRNLSVRGITNLGNTCFFNAVMQNLAQTYTLTDLMNEIKESSTKLKIFPSSDSQLDPLVVELSRPGPLTSALFLFLHSMKETEKGPLSPKVLFNQLCQKAPRFKDFQQQDSQELLHYLLDAVRTEETKRIQASILKAFNNPTTKTADDETRKKVKAYGKEGVKMNFIDRIFIGELTSTVMCEECANISTVKDPFIDISLPIIEERVSKPLLWGRMNKYRSLRETDHDRYSGNVTIENIHQPRAAKKHSSSKDKSQLIHDRKCIRKLSSGETVTYQKNENLEMNGDSLMFASLMNSESRLNESPTDDSEKEASHSESNVDADSEPSESESASKQTGLFRSSSGSGVQPDGPLYPLSAGKLLYTKETDSGDKEMAEAISELRLSSTVTGDQDFDRENQPLNISNNLCFLEGKHLRSYSPQNAFQTLSQSYITTSKECSIQSCLYQFTSMELLMGNNKLLCENCTKNKQKYQEETSFAEKKVEGVYTNARKQLLISAVPAVLILHLKRFHQAGLSLRKVNRHVDFPLMLDLAPFCSATCKNASVGDKVLYGLYGIVEHSGSMREGHYTAYVKVRTPSRKLSEHNTKKKNVPGLKAADNESAGQWVHVSDTYLQVVPESRALSAQAYLLFYERVL
B4: the binding entry is “binds” with FLAG-MRGPRF (1-181aa), “no binding” with FLAG-MRGPRF (182-343aa) and “binds” in the assay with Flag-MRGPRF.

B5: USP45-SmBiT (enzyme, UniProt Q70EL2 1-814)
chain: MRVKDPTKALPEKAKRSKRPTVPHDEDSSDDIAVGLTCQHVSHAISVNHVKRAIAENLWSVCSECLKERRFYDGQLVLTSDIWLCLKCGFQGCGKNSESQHSLKHFKSSRTEPHCIIINLSTWIIWCYECDEKLSTHCNKKVLAQIVDFLQKHASKTQTSAFSRIMKLCEEKCETDEIQKGGKCRNLSVRGITNLGNTCFFNAVMQNLAQTYTLTDLMNEIKESSTKLKIFPSSDSQLDPLVVELSRPGPLTSALFLFLHSMKETEKGPLSPKVLFNQLCQKAPRFKDFQQQDSQELLHYLLDAVRTEETKRIQASILKAFNNPTTKTADDETRKKVKAYGKEGVKMNFIDRIFIGELTSTVMCEECANISTVKDPFIDISLPIIEERVSKPLLWGRMNKYRSLRETDHDRYSGNVTIENIHQPRAAKKHSSSKDKSQLIHDRKCIRKLSSGETVTYQKNENLEMNGDSLMFASLMNSESRLNESPTDDSEKEASHSESNVDADSEPSESESASKQTGLFRSSSGSGVQPDGPLYPLSAGKLLYTKETDSGDKEMAEAISELRLSSTVTGDQDFDRENQPLNISNNLCFLEGKHLRSYSPQNAFQTLSQSYITTSKECSIQSCLYQFTSMELLMGNNKLLCENCTKNKQKYQEETSFAEKKVEGVYTNARKQLLISAVPAVLILHLKRFHQAGLSLRKVNRHVDFPLMLDLAPFCSATCKNASVGDKVLYGLYGIVEHSGSMREGHYTAYVKVRTPSRKLSEHNTKKKNVPGLKAADNESAGQWVHVSDTYLQVVPESRALSAQAYLLFYERVL
For the molecule B5, in the assay with MRGPRF-LgBiT, the binding result is reported as “binds”.

(Values after publication PMC12561219.)
